Assay results from PubChem BioAssay (NCATS).
Where “and” joins values, the source holds several entries; their conditions need not be identical. Equal values may be shown once. The inconclusive results got no clear call from the source; some entries with a clear call stand among them for comparison. Potencies of inconclusive entries are doubtful fits and often do not repeat. Calls of active or inactive are those of the source. The call rests on the fitted dose curve; in most records, active means well fitted cell-killing curve with a large enough effect; inconclusive means small, poorly fitted or top-dose-only effect; inactive means no such curve, though single readings can be large or run the other way.

Assay: qHTS of pediatric cancer cell lines to identify multiple opportunities for drug repurposing: Primary screen for Rh30 cells (AID 1347107); further: nearly all actives have a fitted effect of over 75% in size
Settings: Rh30 rhabdomyosarcoma viability, CellTiter-Glo luminescence, 48 h; series mostly up to 46 µM
Procedure, shortened: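 Cells (500-1,000/well) rested 5 h, then received compounds for 48 h; metabolically active cells were measured by CellTiter-Glo luminescence. Final concentrations spanned up to 46 µM (MIPE, 11-point) or 0.59 nM-46 µM (NPC, 8-point) in primary screens, 11-point in follow-ups.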
Potency means the concentration at half of the fitted maximal effect; tags describe the fitted curve by direction and shape.

Compound	Potency
CN(C)N=Nc1nc[nH]c1C(N)=O	inconclusive: 1.87 µM [cytotoxic, partial curve, poor fit]
Cc1nc2c([nH]1)CCN(C(=O)c1ccc(NC(=O)c3ccccc3-c3ccccc3)cc1)c1ccccc1-2	inactive
CC=CC(=O)N(CC)c1ccccc1C	inactive
Cc1ccc(C2=Nc3ccc(Cl)cc3OC2)cc1	inconclusive: 14.8 µM [cytotoxic, partial curve]
NS(=O)(=O)c1ccc(Nc2nc(OCC3CCCCC3)c3[nH]cnc3n2)cc1	inconclusive: 20.9 µM [cytotoxic, single point]
Cc1cc2c(cc1C1(c3ccc(C(=O)O)cn3)CC1)C(C)(C)CCC2(C)C	inconclusive: 3.72 µM [cytotoxic, partial curve]
Clc1ccccc1C(c1ccccc1)(c1ccccc1)n1ccnc1	inconclusive: 6.62 µM [cytotoxic, partial curve]
CN(C)C(=N)N=C(N)N	inconclusive: 10.5 µM [cytotoxic, partial curve]
CC(C)(C)NC(=O)Nc1cccc(Nc2ncc(F)c(NC(C)(C)CO)n2)c1	inactive
Cc1nccn1CC1CCc2c(c3ccccc3n2C)C1=O (stereo unspecified)	inactive
CO[C@H]1C=CO[C@@]2(C)Oc3c(C)c(O)c4c(O)c(c5c(c4c3C2=O)NC2(CCN(CC(C)C)CC2)N=5)=NC(=O)C(C)=CC=C[C@H](C)[C@H](O)[C@@H](C)[C@@H](O)[C@@H](C)[C@H](OC(C)=O)[C@H]1C	inactive
CC(C)C[C@@H](N)[C@H](O)C(=O)N[C@H](C(=O)N[C@H](C(=O)N[C@@H](CC(=O)O)C(=O)O)C(C)C)C(C)C	inconclusive: 5.9 µM [cytotoxic, partial curve]
O=C(O)[C@H]1O[C@H](Oc2cc3oc(-c4ccccc4)cc(=O)c3c(O)c2O)[C@H](O)[C@@H](O)[C@H]1O	inconclusive: 5.9 µM [cytotoxic, partial curve]
CC[C@H](NC(C)C)[C@H](O)c1ccc(O)c2[nH]c(=O)ccc12	inactive
Cc1cc(=O)oc2cc(O)ccc12	inconclusive: 1.18 µM [cytotoxic, partial curve, poor fit]
c1ccc2c(Oc3nc(Nc4ccc(N5CCOCC5)cc4)c4ncn(C5CCCCC5)c4n3)cccc2c1	inactive
O=C(Nc1cccnc1)N1CCC(Cc2cccc(Oc3ccc(C(F)(F)F)cn3)c2)CC1	inconclusive: 10.5 µM [cytotoxic, partial curve, poor fit]
CNC[C@H](O)c1cccc(O)c1	inactive

Compound	Potency
Cc1ncc([N+](=O)[O-])n1CC(C)O (stereo unspecified)	inactive
Cc1noc(NS(=O)(=O)c2ccc(N)cc2)c1C	inactive
Nc1nc(-c2nn(Cc3ccccc3F)c3ncccc23)nc(N)c1N1CCOCC1	inactive
Cn1cnc2c1c(=O)[nH]c(=O)n2C	inconclusive: 20.9 µM [cytotoxic, partial curve]
O=C(O)CCn1c2c(c3ccccc31)C[C@H](NS(=O)(=O)c1ccc(F)cc1)CC2	inactive
O=C(C1CCCCC1)N1CC(=O)N2CCc3ccccc3C2C1 (stereo unspecified)	inactive
CCn1cc(C(=O)O)c(=O)c2cc(F)c(N3CCNCC3)nc21	inactive
NC(=O)c1ccc2[nH]ccc2c1	inconclusive: 20.9 µM [cytotoxic, partial curve, poor fit]
C1Cc2[nH]nc(-c3nn[nH]n3)c2C1	inactive
CC1COc2c(N3CCN(C)CC3)c(F)cc3c(=O)c(C(=O)O)cn1c23 (stereo unspecified)	inconclusive: 18.7 µM [cytotoxic, partial curve, poor fit]
COc1nccc(-c2c(-c3ccc(F)cc3)ncn2C2CCNCC2)n1	inconclusive: 5.9 µM [cytotoxic, partial curve]
COc1c(N2CCNC(C)C2)c(F)cc2c(=O)c(C(=O)O)cn(C3CC3)c12 (stereo unspecified)	inactive
O=c1ccn([C@@H]2O[C@H](CO)[C@H](O)[C@H]2O)c(=O)[nH]1	inactive
CC1(C)SCCN(S(=O)(=O)c2ccc(OCC#CCO)cc2)[C@@H]1C(=O)NO	inactive
NC[C@H]1O[C@H](O[C@@H]2[C@@H](O)[C@@H](O[C@H]3O[C@H](CO)[C@@H](O)[C@H](N)[C@@H]3O)[C@H](N)C[C@@H]2N)[C@H](O)[C@@H](O)[C@H]1O	inactive
CCCCCCCCCCCC(CC1OC(=O)C1CCCCCC)OC(=O)C(CC(C)C)NC=O (stereo unspecified)	inactive
COc1cc(C(=O)NC2CCN(C)CC2)ccc1Nc1ncc2c(n1)N(C1CCCC1)CCC(=O)N2C(C)C	inconclusive: 6.62 µM [cytotoxic, partial curve]
COc1cc(O)c2c(c1)C(=O)c1cc(C)cc(O)c1C2=O	inconclusive: 1.15 µM [cytotoxic, partial curve, poor fit]

Assay: qHTS of pediatric cancer cell lines to identify multiple opportunities for drug repurposing: Primary screen for Rh41 cells (AID 1347108); further: nearly all actives have a fitted effect of over 70% in size
Settings: Rh41 rhabdomyosarcoma viability, CellTiter-Glo luminescence, 48 h; series mostly up to 46 µM
Procedure, shortened: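 Following a 5-hour attachment period, cells at 500-1,000/well received compounds and were cultured for 48 hours. CellTiter-Glo was added and luminescence read to estimate viable, metabolically active cells.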

Compound	Potency
Cc1ccc(C2=Nc3ccc(Cl)cc3OC2)cc1	inconclusive: 6.62 µM [cytotoxic, partial curve]
Clc1ccccc1C(c1ccccc1)(c1ccccc1)n1ccnc1	inconclusive: 15 µM [cytotoxic, single point] and inconclusive: 18.7 µM [cytotoxic, partial curve]
CC(C)(C)NC(=O)Nc1cccc(Nc2ncc(F)c(NC(C)(C)CO)n2)c1	inconclusive: 5.9 µM [cytotoxic, partial curve]
CC(C)C[C@@H](N)[C@H](O)C(=O)N[C@H](C(=O)N[C@H](C(=O)N[C@@H](CC(=O)O)C(=O)O)C(C)C)C(C)C	inconclusive: 4.69 µM [cytotoxic, partial curve]
O=C(O)[C@H]1O[C@H](Oc2cc3oc(-c4ccccc4)cc(=O)c3c(O)c2O)[C@H](O)[C@@H](O)[C@H]1O	inconclusive: 5.9 µM [cytotoxic, partial curve]
CC[C@H](NC(C)C)[C@H](O)c1ccc(O)c2[nH]c(=O)ccc12	inactive
NC(=O)c1ccc2[nH]ccc2c1	inconclusive: 5.9 µM [cytotoxic, partial curve]
CC1COc2c(N3CCN(C)CC3)c(F)cc3c(=O)c(C(=O)O)cn1c23 (stereo unspecified)	inconclusive: 18.7 µM [cytotoxic, partial curve]
NC[C@H]1O[C@H](O[C@@H]2[C@@H](O)[C@@H](O[C@H]3O[C@H](CO)[C@@H](O)[C@H](N)[C@@H]3O)[C@H](N)C[C@@H]2N)[C@H](O)[C@@H](O)[C@H]1O	inactive
COc1cc(O)c2c(c1)C(=O)c1cc(C)cc(O)c1C2=O	inconclusive: 1.15 µM [cytotoxic, partial curve, poor fit]
